Measured values from PubChem BioAssay AID2060885 (Molecular Pharmacology Branch, DTP, NCI, 2025).
The source holds more than one record for some entries. This is not the full list of results. The source may hold further records. Values that stand side by side are repeated measurements (runs, samples, wells, individuals or studies).

Tested on: NCI-H23 complex spheroids with HUVEC/MSC, viability
Assay: Anticancer human tumor NCI-H23 cell line growth inhibition [RAS];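 also: spheroids exposed to compound for 7 days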;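 as to viability, T/C: 100% = DMSO vehicle control viability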
Conditions: for viability, T/C: stronger effect = lower value; for IC50: compound alone
Text: RAS pathway inhibitors in Combinations in Complex Spheroids
A high-throughput screen of multi-cell type tumor spheroids was designed to identify active combinations of RAS pathway inhibitors and targeted small molecules. Complex spheroids include a stromal component modeled by human endothelial cells (HUVEC) and fibroblasts modeled by human mesenchymal stem cells (MSCs). The concentration ranges selected for each drug and investigational agent were based upon clinically achievable concentrations if the clinical Cmax of the agent was known.
Compounds. The drugs and investigational agents: abemaciclib (NSC768073), cobimetinib (NSC768068), divarasib (GDC6063, NSC841802), docetaxel (NSC628503), GDC-1971 (RLY-1971, NSC841576), gemcitabine (NSC613327), inavolisib (NSC800729), ipatasertib (NSC767898), KB-0742 (NSC834161), MRTX-1133 (NSC836407), osimertinib (NSC779217), RMC-4630 (NSC839698), RMC-6236 (NSC851965), RMC-6291 (NSC852671), Ro-3306 (NSC812927), sapanisertib (NSC764658), SN-38 (NSC673596), staurosporine (NSC755774), SY5609 (NSC837396), and tovorafenib (DAY101, NSC766906), were obtained from the National Cancer Institute (NCI) Developmental Therapeutics Program Chemical Repository. The FDA-approved anticancer drug set is available from the NCI Developmental Therapeutics Program. […] The stock solutions were prepared in dimethyl sulfoxide (DMSO, Sigma-Aldrich, St. Louis, MO, cat. D2650) at 800-fold the tested concentration and stored at -70 degrees C prior to their use. All drugs and investigational agents were tested over a range starting from a high concentration at or near the clinical Cmax and decreasing in half-log increments. If the clinical Cmax for an agent had not been determined, the highest concentration tested was 10 microM.
Cell Culture. All cells were maintained in an incubator at 37 degrees C and 5% CO2 with 95% humidity. The PDC lines were cultured according to standard operating procedures established by the NCI PDMR. All PDCs were thawed and cultured in Matrigel-coated flasks prepared with a working solution of 1X Ham's F-12 nutrient mix, without supplementation (Invitrogen, Waltham, MA, cat. 11765054), 100 U/mL penicillin-streptomycin (Invitrogen, cat. 15140122), and 2.5% Matrigel (Corning Inc., Corning, NY, cat. 354248) for the first three passages. The 362531-283-R-J2-PDC and 782815-120-R-J1-PDC lines were cultured in 6C/Colon 1B media, which includes advanced DMEM/F-12 (Thermo Fisher Scientific, cat. 12634028), 10 mM HEPES (Thermo Fisher Scientific, cat. 15630080), 1X GlutaMAX supplement (Thermo Fisher Scientific, cat. 35050061), 0.1 mg/mL primocin (InvivoGen, San Diego, CA, cat. ant-pm-2), 10% defined fetal bovine serum, heat inactivated (HyClone Laboratories Inc., Logan, UT, cat. SH30070.03HI), 50% L-WRN conditioned media (ATCC, cat. CRL-3276), 1.25 mM N-Acetyl-L-cysteine (Sigma-Aldrich, cat. A9165), 10 mM nicotinamide (Sigma-Aldrich, cat. N0636), 1X B-27 supplement (Thermo Fisher Scientific, cat. 17504044), 1X N-2 supplement (Thermo Fisher Scientific, cat. 17502048), 50 ng/mL human EGF (Thermo Fisher Scientific, cat. PHG0311), and 10 microM Y-27632 dihydrochloride (Tocris Bioscience, cat. 1254). The K12877-001-R-J1-PDC line was cultured in 6I media, which includes all 6C/Colon 1B media plus 10 ng/mL human FGF-10 (PeproTech, cat. 100-26), 1 ng/mL human FGF-2 (PeproTech, cat. 100-18B), 1 µM prostaglandin E2 (Tocris Bioscience, cat. 2296), […] hydrocortisone (Sigma-Aldrich, cat. H4001), and […] bovine insulin (Sigma-Aldrich, cat. I6634). The K86415-001-R-J1-PDC line was cultured in 6D media, which includes all 6C/Colon 1B media components minus the L-WRN conditioned media. The 485176-168-R4-J1-PDC was cultured in PANC media, which includes all 6C/Colon 1B media plus 100 ng/mL human FGF-10 (PeproTech, cat. 100-26), 500 nM SB-431542 (Selleckchem, cat. S1067), and 10 nM gastrin (Tocris Bioscience, cat. 3006). […]

C=CC(=O)Nc1cc(Nc2nccc(-c3cn(C)c4ccccc34)n2)c(OC)cc1N(C)CCN(C)C
viability, T/C (compound alone 0.1 µM): 109, 121, 89.8, 103%
viability, T/C (compound alone 1 µM): 84.3, 89, 111, 97.3%

CC1(O)CCCC1n1c(=O)c(C(F)F)cc2cnc(NC3CCN(S(C)(=O)=O)CC3)nc21 (centres undefined)
viability, T/C (compound alone 0.1 µM): 85.6, 79, 64.7, 60%

CC(C)NCC(C(=O)N1CCN(c2ncnc3c2C(C)CC3O)CC1)c1ccc(Cl)cc1 (centres undefined)
viability, T/C (compound alone 10 µM): 48.1, 49.4, 76.5, 60.1%

CC(C)n1nc(-c2ccc3oc(N)nc3c2)c2c(N)ncnc21
viability, T/C (compound alone 0.001 µM): 102, 90, 110, 116%

CC1(C)CCC(Nc2ncc(C(F)(F)F)c(-c3c[nH]c4c(P(C)(C)=O)c(C#N)ccc34)n2)CN1 (centres undefined)
IC50: 9.07 nM, 18.2 nM, 33.9 nM, > 300 nM

CCN1CCN(Cc2ccc(Nc3ncc(F)c(-c4cc(F)c5nc(C)n(C(C)C)c5c4)n3)nc2)CC1
viability, T/C (compound alone 1 µM): 42.4, 46.1, 60.7, 69.1%

NC1c2ccccc2OC12CCN(c1cnc3c(N4CCCc5ncccc54)n[nH]c3n1)CC2 (centres undefined)
IC50: 74.2, 123, 241, 268 nM

O=C(c1ccc(F)c(F)c1Nc1ccc(I)cc1F)N1CC(O)([C@@H]2CCCCN2)C1
viability, T/C (compound alone 0.00316 µM): 93.1, 88.6, 106, 115%
viability, T/C (compound alone 0.01 µM): 87.4, 78.8, 94.4, 105%

C[C@@H](NC(=O)c1ncnc(N)c1Cl)c1ncc(C(=O)Nc2cc(C(F)(F)F)c(Cl)cn2)s1
viability, T/C (compound alone 10 µM): 55.4, 50.9, 73.8, 82.6%

CCn1c(-c2cccnc2C(C)OC)c2c3cc(ccc31)N1CCOC(CC(NC(=O)C(C(C)C)N(C)C(=O)C3(F)CCN(C(=O)C#CC(C)(C)N(C)C)CC3)C(=O)N3CCCC(N3)C(=O)OCC(C)(C)C2)C1 (centres undefined)
viability, T/C (compound alone 0.003 µM): 30.1, 28.2, 30.2, 30.3, 112, 28.4, 33, 30.7%

Cc1nc(N2CCC3(CC2)COC(C)C3N)c(CO)nc1Sc1ccnc(N)c1Cl (centres undefined)
IC50: 1.23 µM, 2.1 µM, > 10 µM, 7.17 µM
viability, T/C (compound alone 0.1 µM): 73.8, 97.5, 102, 93.5%
